Data reported in PubChem BioAssay (NCATS).
The shares of active, inactive and inconclusive entries below differ from those in the screen. No potency is given beside an inconclusive call; the fits are too rough. Active and inactive are the calls of the source. The call rests on the fitted dose curve; in most records, active means well fitted cell-killing curve with a large enough effect; inconclusive means small, poorly fitted or top-dose-only effect, or effect the other way; inactive means no such curve, though single readings can be large or run the other way.

Experiment: Viability qHTS for spleen associated tyrosine kinase inhibitor (SYKi) drug resistant MV4-11 cells (AID 1963824); further: nearly all actives have a fitted effect of over 35% in size
Settings: SYKi-resistant MV4-11 viability, CellTiter-Glo, 72 h; series mostly up to 45 µM
How it was run: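 SYK inhibitor-resistant MV4-11 AML cells, 500 per well, added to predispensed compounds and incubated 72 hr at 37 C, 5% CO2. Viability measured by CellTiter-Glo luminescence after 10 min at room temperature.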
Potency means the concentration at half of the fitted maximal effect; tags describe the fitted curve by direction and shape.

Row | Structure (SMILES) | Potency | viability, % of control
1 | CC1=C2CC(O)(C(C)(C)O)C(O[C@@H]3O[C@H](CO)[C@@H](O)[C@H](O)[C@H]3O)CC(C)C2CC1=O (stereo not given in full) | inactive | –
2 | O=C(CC1C(=O)Nc2ccccc21)OC[C@H]1O[C@@H](OCCc2ccc(O)cc2)[C@H](O)[C@@H](O)[C@@H]1O (stereo not given in full) | inconclusive [cytotoxic, full curve, poor fit] | –
3 | O=S(=O)(NC1CCNCC1)c1cc(S(=O)(=O)c2ccccc2)ccc1C(F)(F)F | inactive | –
4 | COc1ccc2c(c1)[C@]1(C[C@H]1c1ccc3c(/C=C/c4ccc(CN5C[C@@H](C)O[C@@H](C)C5)cc4)n[nH]c3c1)C(=O)N2 | active: 0.332 µM | –
5 | CCCC(=O)Nc1ccc(OCC(O)CNC(C)C)c(C(C)=O)c1 (stereo not given) | inactive | –
6 | C=C1CCC[C@]2(C)C=C3OC(=O)C(C)=C3C[C@@H]12 | inconclusive [cytotoxic, partial curve, poor fit] | –
7 | Cc1c(N)cccc1C(F)(F)F | inactive | –
8 | C/C=C(\C)C(=O)O[C@H]1[C@H](O)[C@]2(COC(C)=O)[C@H](O)C[C@]3(C)C(=CCC4[C@@]5(C)CC[C@H](O[C@@H]6O[C@H](C(=O)O)[C@@H](O[C@@H]7O[C@H](CO)[C@@H](O)[C@H](O)[C@H]7O)[C@H](O)[C@H]6O[C@@H]6O[C@H](CO)[C@@H](O)[C@H](O)[C@H]6O)[C@](C)(CO)C5CC[C@]43C)[C@@H]2CC1(C)C (stereo not given in full) | – | inactive: 97.8% [at 9.25 µM]
9 | COC(=O)C1=CO[C@@H](O[C@@H]2O[C@H](CO)[C@@H](O)[C@H](O)[C@H]2O)[C@@H]2[C@@H](C(=O)OC)[C@@H](O)C(O)[C@H]12 (stereo not given in full) | inactive | –
10 | C=CC1(C)C=C2C(=O)CC3C(C)(C)CCCC3(C(=O)O)C2(O)CC1 (stereo not given) | inactive | –
11 | C1CCN2C[C@@H]3C[C@@H](CN4CCCC[C@@H]34)[C@H]2C1 | inconclusive [rising, single point] | –
12 | Cc1ccc(C(C)C)c(O[C@@H]2O[C@H](CO)[C@@H](O)[C@H](O)[C@H]2O)c1 | inactive | –
13 | CC1OC2O[C@H]3[C@@H](OCC(O)[C@H]3O)OC(=O)C34CCC(C)(C)CC3C3=CCC5C6(C)CC(O)C(OC7OC(CO)C(O)C(O)C7O[C@@H]7OC[C@H](OC(=O)CC(C)(O)CC(=O)OC1C(OC1OCC(O)C(O)C1O)C2O)[C@@H](O)[C@H]7O)C(C)(CO)C6CCC5(C)C3(C)CC4 (stereo not given in full) | active: 7.09 µM | –
14 | C[C@H]1O[C@H](O[C@H]2[C@H](O)[C@@H](O)[C@@H](O[C@H]3[C@H](O)[C@@H](O)C(O)O[C@@H]3CO)O[C@@H]2CO)[C@H](O)[C@@H](O)[C@@H]1N[C@H]1C=C(CO)[C@@H](O)[C@H](O)[C@H]1O (stereo not given in full) | inactive | –
15 | CC1(C)S[C@@H]2[C@H](NC(=O)[C@H](N)c3ccccc3)C(=O)N2[C@H]1C(=O)O | inactive | –
16 | CC(=O)N[C@H]1[C@H](O[C@H]2CC[C@@]3(C)C(CC[C@]4(C)C3CC=C3C5CC(C)(C)CC[C@]5(C(=O)O)C(O)C[C@]34C)C2(C)C)O[C@H](CO[C@@H]2O[C@H](C)[C@H](O)[C@H](O)[C@H]2O[C@@H]2OC[C@@H](O)[C@H](O)[C@H]2O)[C@@H](O)[C@@H]1O (stereo not given in full) | inconclusive [cytotoxic, single point] | –
17 | CC(C)(C)Nc1nc2cc(Cl)c(Cl)cc2nc1S(C)(=O)=O | active: 0.731 µM | –
18 | C=CC(C)(C)C12Nc3c(ccc4c3OC(C)(C)C=C4)C1(O)CC1C(=O)N3CCCC3C(=O)N12 (stereo not given) | active: 4.47 µM | –
19 | CC1=C2C3OC(=O)C(C)C3(O)CCC2(C)CCC1 (stereo not given) | inconclusive [cytotoxic, partial curve, poor fit] | –
20 | CC1OC(O[C@@H]2[C@H](O)[C@@H](OC3OC(CO)C(O)C(O)C3O)[C@H](OC(=O)[C@]34CCC(C)(C)C[C@H]3C3=CCC5[C@@]6(C)CC[C@H](O[C@@H]7O[C@H](C(=O)O)[C@@H](O)[C@H](O[C@@H]8OC[C@@H](O)[C@H](O)[C@H]8O)[C@H]7O[C@@H]7O[C@H](CO)[C@H](O)[C@H](O)[C@H]7O)[C@@](C)(C=O)C6CC[C@@]5(C)[C@]3(C)C[C@H]4O)O[C@@H]2C)C(O)C(O)C1OC1OCC(O)C(O)C1O (stereo not given in full) | – | inactive: 89.9% [at 4.97 µM]

Row | Structure (SMILES) | Potency | viability, % of control
21 | C[C@@H]1CC[C@]2(C(=O)O)CC[C@]3(C)C(=CCC4[C@@]5(C)C[C@@H](O)[C@H](O)[C@@](C)(CO)C5CC[C@]43C)C2[C@]1(C)O (stereo not given in full) | inconclusive [cytotoxic, single point] | –
22 | C=C1CCC[C@]2(C)CC[C@@](O)(C(=C)C(=O)O)C[C@@H]12 | inactive | –
23 | COc1ccc(C(O[C@@H]2O[C@H](CO)[C@@H](O)[C@H](O)[C@H]2O)C(CO)Oc2ccc(/C=C/CO)cc2OC)cc1O (stereo not given in full) | inconclusive [rising, full curve, poor fit] | –
24 | C[C@H](CCC(=O)O)[C@H]1CC[C@H]2[C@@H]3C[C@H](O)[C@@H]4C[C@H](O)CC[C@]4(C)[C@H]3CC[C@]12C | inactive | –
25 | CC(=O)OC1C=C(C(=O)O)C2(CO)CCC(C)C(C)(CCc3ccoc3)C2C1 (stereo not given) | inactive | –
26 | O=c1[nH]c2cc(C(F)(F)F)c(N3CCOCC3)cc2n(CP(=O)(O)O)c1=O | inactive | –
27 | CCOC(=O)[C@H](CCc1ccccc1)N[C@@H](C)C(=O)N1C2CCCCC2C[C@H]1C(=O)O (stereo not given in full) | active: 6.51 µM | –
28 | Cn1c(=O)c2[nH]c(Br)nc2n(C)c1=O | inactive | –
29 | C=CC1(C)CC(OC(=O)C(=C)C(O)COC(C)=O)C(C(=C)C(=O)OC)C(O)C1C(=C)CO (stereo not given) | active: 10 µM | –
30 | CC[C@H]1OC(=O)[C@H](C)[C@@H](O[C@H]2C[C@@](C)(OC)[C@@H](O)[C@H](C)O2)C(C)[C@@H](O[C@@H]2O[C@H](C)C[C@H](N(C)C)[C@H]2O)[C@](C)(O)C[C@@H](C)CN(C)[C@H](C)[C@@H](O)[C@]1(C)O (stereo not given in full) | inconclusive [cytotoxic, single point] | –
31 | C[C@@H]([C@@H](O)c1ccc(O)cc1)N1CCC(O)(c2ccccc2)CC1 | inconclusive [cytotoxic, single point] | –
32 | O=C1NC(Cc2c[nH]c3ccccc23)C(=O)NC1Cc1cnc[nH]1 (stereo not given) | inconclusive [cytotoxic, partial curve, poor fit] | –
33 | O=C(O)Cc1ccc2oc(-c3ccc(NC(=O)/C=C/c4ccc(Br)cc4)c(F)c3)nc2c1 | inconclusive [cytotoxic, partial curve, poor fit] | –
34 | COc1cc(O)c2c(c1)C1=C[C@H](O)[C@@H](O)C[C@]1(C)OC2=O | inconclusive [cytotoxic, full curve, poor fit] | –
35 | Cc1cc(Nc2cc(C)c(C#N)c(NC(C)CCCC(C)(C)O)n2)n[nH]1 (stereo not given) | active: 0.411 µM | –
36 | CNC(C)C(=O)NC(C(=O)N1CCCC1C(=O)Nc1cccc2ncccc12)C(C)C (stereo not given) | active: 11.6 µM | –
37 | CN1CCN(Cc2ccc(-c3cnc4[nH]cc(-c5ccc6[nH]ccc6c5)c4c3)cc2)CC1 | active: 0.146 µM | –
38 | O=C(NCC1CCN(Cc2cccc(Cl)c2)CC1)[C@@H]1CCCN(c2ncnc3c2nc2n3CCCC2)C1 | active: 10.3 µM | –
39 | CCOC(=O)CCC(=O)O[C@H]1[C@H](O[C@@H]2[C@@H](C)[C@H](O[C@H]3C[C@@](C)(OC)[C@@H](O)[C@H](C)O3)[C@@H](C)C(=O)O[C@H](CC)[C@@](C)(O)[C@H](O)[C@@H](C)C(=O)[C@H](C)CC2(C)O)O[C@H](C)C[C@@H]1N(C)C (stereo not given in full) | inactive | –
40 | COC1C(CO)OC(n2cnc3c(=O)[nH]cnc32)C1O (stereo not given) | inconclusive [cytotoxic, single point] | –
